# Assay results taken from article PMC7819943, “Rice protein-binding microarrays: a tool to detect cis-acting elements near promoter regions in rice”.
# The list shows a part of the results.
# Molecular target: T1, OsWOX13 (Oryza sativa, UniProt Q5QMM3 1-267)
# T1 sequence: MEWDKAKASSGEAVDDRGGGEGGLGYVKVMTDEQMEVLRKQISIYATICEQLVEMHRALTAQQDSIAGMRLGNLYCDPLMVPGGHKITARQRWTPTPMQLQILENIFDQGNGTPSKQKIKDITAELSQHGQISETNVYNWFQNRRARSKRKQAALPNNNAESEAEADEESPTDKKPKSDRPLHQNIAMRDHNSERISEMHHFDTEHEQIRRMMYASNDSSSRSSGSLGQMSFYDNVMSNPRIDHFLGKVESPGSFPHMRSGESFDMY
# Test: protein-binding microarray (RPBM); PBS, 2% BSA, 51.3 ng/ul salmon testes DNA, 50 uM zinc acetate, 200 nM TF, 25 C, 1 h; high values mean tight binding
# Settings: protein: recombinant; tags: N-terminal polyhistidine and DsRed monomer fusion (pET32a); label: CyDye5-dUTP incorporated in the synthesized complementary strand; 3' TTTTT single-stranded linker to array surface; dsDNA, one strand shown
# How it was run: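 Polyhistidine-tagged DsRed fusions of transcription factors, joined at the N-terminus, were expressed in E. coli BL21-CodonPlus and isolated on Ni–NTA. They were incubated at 200 nM for 1 h at 25 °C on a custom Agilent array, double-stranded and BSA-blocked, in PBS with 2% BSA, salmon testes DNA and 50 µM zinc acetate. The binding signal is per-feature fluorescence intensity (arbitrary units) read on an Axon 4000B scanner after washing.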
row,Sequence,binding signal
1,ACTAATTGTATAATTTGCATGGAAATCGCGAGATGAATCTCGGAGTCACCTAGTGCAG,44400 fluorescence intensity (a.u.)
2,CACACATAATTTCTGGCAAGACAACGCATTAATCGGGAGCCGGAGTCACCTAGTGCAG,5750 fluorescence intensity (a.u.)
3,AAATGATGAAGAAATTAATTGGCGATTGTTGTGATCAGTTCGGAGTCACCTAGTGCAG,36800 fluorescence intensity (a.u.)
4,CCCAAATTATAAATCACCTCGTAATTTCTCGCTTAATTATCGGAGTCACCTAGTGCAG,30900 fluorescence intensity (a.u.)
5,TGTCCTCCTGCTCCTGATTGGATCGGTAGAAAGGTGGCGGCGGAGTCACCTAGTGCAG,11000 fluorescence intensity (a.u.)
6,TGTTCGATATGATCTTAATTAGCCAATGGATGCTGAGAGCCGGAGTCACCTAGTGCAG,4720 fluorescence intensity (a.u.)
7,CTAAACATACAAACTTCTAACTTTTCCGTCACATCGTTCCCGGAGTCACCTAGTGCAG,3430 fluorescence intensity (a.u.)
8,CCATGCTTTGTCAAGTTATGATTTGTTGGAATTTTCCCAACGGAGTCACCTAGTGCAG,3270 fluorescence intensity (a.u.)
9,TACCAATCTATAAATATATTCTATACCACATACAATCCAGCGGAGTCACCTAGTGCAG,3520 fluorescence intensity (a.u.)
10,TAGCTAATTTCAACTAATCTCAATCAGTGACAACTTTTATCGGAGTCACCTAGTGCAG,10700 fluorescence intensity (a.u.)
11,GACTTAACTGGGTGTGTTTTGAGAGCTTGGATTTTATCCTCGGAGTCACCTAGTGCAG,6150 fluorescence intensity (a.u.)
12,ATAGATTTGATCATCAGTTGACACGTGCTATATACTCCCTCGGAGTCACCTAGTGCAG,25700 fluorescence intensity (a.u.)
13,CTGTTAATTAATCGTCTAATCATAAGTTCAGTGCTCGTATCGGAGTCACCTAGTGCAG,29000 fluorescence intensity (a.u.)
14,AGTTTGATTACTTGGCCTCAGTACTAAAAGTTACTCAGTACGGAGTCACCTAGTGCAG,16400 fluorescence intensity (a.u.)
15,TTGACAATTAAAGGACATTTGTATCTGGTATTTTGGTTCGCGGAGTCACCTAGTGCAG,4200 fluorescence intensity (a.u.)
16,CTAAACTGATCTAAATGAGAAGCTATGAGTGACCAAACAGCGGAGTCACCTAGTGCAG,33600 fluorescence intensity (a.u.)
17,TTAGATTAATTTATTCTGAAACGGATAGGACGAATGGAGTCGGAGTCACCTAGTGCAG,41700 fluorescence intensity (a.u.)
18,AAAATATATATTTTGCAATAATTTATGTGTCAAATTGAACCGGAGTCACCTAGTGCAG,5050 fluorescence intensity (a.u.)
19,TATACTAATTACTAGCACTACTACTCCAGTAGAGTAGGAGCGGAGTCACCTAGTGCAG,11000 fluorescence intensity (a.u.)
20,TAACTAATTACCAAACAGATCGTACCCCACCATAAGAATCCGGAGTCACCTAGTGCAG,29200 fluorescence intensity (a.u.)
21,ATTAATTGCATTTCCTGCCTCGGTTTCAGAAAAGAAAAGTCGGAGTCACCTAGTGCAG,22500 fluorescence intensity (a.u.)

row,Sequence,binding signal
1,AGAAATGGATAATGACTGGTACGTGGGCCGCTATAACTTTCGGAGTCACCTAGTGCAG,13400 fluorescence intensity (a.u.)
2,TCCAACTGATAGTTGATGATAGGCGTTAGGTTAGTTTACTCGGAGTCACCTAGTGCAG,8180 fluorescence intensity (a.u.)
3,CGCGCTGATTTGACTTCCGGTTTGAAATACCACCACACCACGGAGTCACCTAGTGCAG,23500 fluorescence intensity (a.u.)
4,TTGATGCCTAATTTGTTATTTTATAATTTTATTTGAATTTCGGAGTCACCTAGTGCAG,8290 fluorescence intensity (a.u.)
5,CTATGGGATTGGTTGTTATTTGTACTACTGAGTACTGACCCGGAGTCACCTAGTGCAG,14000 fluorescence intensity (a.u.)
6,AACAAACATTCCTCTGATAATTAAGTTATATTATACTTCCCGGAGTCACCTAGTGCAG,3260 fluorescence intensity (a.u.)
7,TTTTATATGACAATCAGCCTTCTATCAATAAAGTAGGTATCGGAGTCACCTAGTGCAG,5430 fluorescence intensity (a.u.)
8,GTTAATTAATACTCTCCGTTTCATATTATAAGGCGTTTGACGGAGTCACCTAGTGCAG,17400 fluorescence intensity (a.u.)
9,TGTTCTTTAACAGATTGATAGGGCTAGTTTAGTACAGTAACGGAGTCACCTAGTGCAG,25300 fluorescence intensity (a.u.)
10,TAATTTAAATAAATTACTTTTAAGTTAATAAAATATTTGACGGAGTCACCTAGTGCAG,3580 fluorescence intensity (a.u.)
11,CGCCATTTTCAATCAAAGATTCCTACTAGTATTAGTAGTGCGGAGTCACCTAGTGCAG,22000 fluorescence intensity (a.u.)
12,TGTAATTGTCATGAGGCATTCAACATTTCTGAGTTGGCGCCGGAGTCACCTAGTGCAG,14100 fluorescence intensity (a.u.)
13,ATGTCAGGACAATCAGGATTTAATTATTTTACAGCGGGGACGGAGTCACCTAGTGCAG,9780 fluorescence intensity (a.u.)
14,TTAGATTGAATCTGTGAATTCCCTTCCTCTCCGTACGTCACGGAGTCACCTAGTGCAG,35200 fluorescence intensity (a.u.)
15,TGTGATGTGATGGAAAGTTGGAAGTTTGGTGTGAACTAAACGGAGTCACCTAGTGCAG,5490 fluorescence intensity (a.u.)
16,TGTGTCGGTTAATTTCTTTCCTGTGACCTATCAAAGATGACGGAGTCACCTAGTGCAG,3650 fluorescence intensity (a.u.)
17,ATTTAAAATAGTTAATACTTAATTAATCATGAGCTAATAGCGGAGTCACCTAGTGCAG,7430 fluorescence intensity (a.u.)
18,GTTTAGACTGTAGAGATTGCCAAAATTAACAAGTGACCAACGGAGTCACCTAGTGCAG,14900 fluorescence intensity (a.u.)
19,ATCTAATTATCTGTTGCAATATAGTCATCACTGTGATTTCCGGAGTCACCTAGTGCAG,13400 fluorescence intensity (a.u.)
20,GTGATGATAGCTCCATGATTTCTGCTAGCATGCCAGGAACCGGAGTCACCTAGTGCAG,12900 fluorescence intensity (a.u.)
21,CATGTTAATTTGGGACGAGAGTCGGACTCCTATTTCCTTTCGGAGTCACCTAGTGCAG,7570 fluorescence intensity (a.u.)
